# Paper PMC6602471
# Some of the results follow. At the low end of the ranking the order means little.
# Biological target: T1, ETS1 (UniProt P14921)
# T1 sequence: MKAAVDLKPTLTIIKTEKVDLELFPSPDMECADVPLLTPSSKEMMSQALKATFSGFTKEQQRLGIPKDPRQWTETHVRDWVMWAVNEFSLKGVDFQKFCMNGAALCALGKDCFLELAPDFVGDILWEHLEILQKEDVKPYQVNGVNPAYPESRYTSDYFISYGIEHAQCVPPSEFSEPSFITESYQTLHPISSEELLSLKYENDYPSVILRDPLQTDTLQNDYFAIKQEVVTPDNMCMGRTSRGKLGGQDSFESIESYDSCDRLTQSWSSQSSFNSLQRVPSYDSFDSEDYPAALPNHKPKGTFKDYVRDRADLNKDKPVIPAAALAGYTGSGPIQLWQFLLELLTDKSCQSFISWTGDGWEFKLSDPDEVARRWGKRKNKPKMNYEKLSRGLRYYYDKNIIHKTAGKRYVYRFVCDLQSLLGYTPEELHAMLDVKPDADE
# Assay: custom PBM
# Settings: custom protein-binding microarray; buffer, salt, pH and temperature not stated; high values mean tight binding; double strand, one strand shown
row,Sequence,binding signal (log fluorescence intensity)
1,CAGCATAGAACTTCTTCCCTGAAGCAATTGATAACCGTCTTGATTCGCTTGACGCTGCTG,8.08
2,TAAAGGGAAGACGGTTGTGGTAGTTCCGGGTATGAAGTCTTGATTCGCTTGACGCTGCTG,8.65
3,GCTGCTCCGGTGCATACCCCACCGGATGTGACCCCGGTCTTGATTCGCTTGACGCTGCTG,11.4
4,TGTCGAGTAAGGGAATGTAGATCACGTGAATGAAAAGTCTTGATTCGCTTGACGCTGCTG,8.16
5,GGAAAAAGGCCCAGGTTAACACCGGAAGTGGGCTTAGTCTTGATTCGCTTGACGCTGCTG,12
6,TCCGGCTACCAGCTCCGCCCACTTCAGGCCTTGTAGGTCTTGATTCGCTTGACGCTGCTG,8.21
7,CACAATTTTTACAGTAATGTAGAACGCGTAACTCCTGTCTTGATTCGCTTGACGCTGCTG,8.38
8,GTGTCTAGGATCCCATCCAACACACGTGTTAAAATGGTCTTGATTCGCTTGACGCTGCTG,8.15
9,GCTGCAGCGGTGCATACCCCACCGGATGTGACCCCGGTCTTGATTCGCTTGACGCTGCTG,10.4
10,GCTGCTGCGGTGCATACACCACCGGATGTGACCCCGGTCTTGATTCGCTTGACGCTGCTG,10.2
11,TCCGGCTACCAGCTCCACCCTCTTCAGGCCTTGTAGGTCTTGATTCGCTTGACGCTGCTG,8.28
12,GCTGCTGCGGTGAATACCCCACCGGATGTGACCCCGGTCTTGATTCGCTTGACGCTGCTG,10.3
13,GGAAAAAGGCCCAGGGTAACACCGGAAATGGGCTTAGTCTTGATTCGCTTGACGCTGCTG,11.5
14,TCCGGCTTCCAGCTCCACCCACTTCAGGCCTTGTAGGTCTTGATTCGCTTGACGCTGCTG,8.68
15,CAACATAGGACTTCTTCCCTGAAGCAATTGATAACCGTCTTGATTCGCTTGACGCTGCTG,8.25
16,TCCGGCTACCAGCTCCACCCACTTCAGGCGTTGTAGGTCTTGATTCGCTTGACGCTGCTG,8.21
17,GCAAAAAGGCCCAGGGTAACACCGGAAGTGGGCTTAGTCTTGATTCGCTTGACGCTGCTG,11.9
18,GTGTATAGGATCCCATCCAACACACGTGTTAAAATCGTCTTGATTCGCTTGACGCTGCTG,8.04
19,CAGGATAGGACTTCTTCCCTGAAGCAATTGATAACCGTCTTGATTCGCTTGACGCTGCTG,8.23
20,GATTAATTTCTGCCCTTATTCGCAAGTGCCATAACAGTCTTGATTCGCTTGACGCTGCTG,8.32

row,Sequence,binding signal (log fluorescence intensity)
1,AATTAATTTCTGCCCTTATTCGCACGTGCCATAACAGTCTTGATTCGCTTGACGCTGCTG,8.33
2,TCCGGTTACCAGCTCCACCCACTTCAGGCCTTGTAGGTCTTGATTCGCTTGACGCTGCTG,8.2
3,TACTGACTTATATATGCGAATGCACGTGAATAGACCGTCTTGATTCGCTTGACGCTGCTG,8.14
4,CAGCATAGGACTTCTTCCCTGAAGCAGTTGATAACCGTCTTGATTCGCTTGACGCTGCTG,8.35
5,TAATGGGAAGACGGTTGTGGTAGTTCCGGGTATTAAGTCTTGATTCGCTTGACGCTGCTG,8.6
6,TACTGACTTATATATGCGAATGCACATGAATGGACCGTCTTGATTCGCTTGACGCTGCTG,8.43
7,CAGCATAGGACTTCTTCCCTGAAGCAATTGAAAACCGTCTTGATTCGCTTGACGCTGCTG,8.4
8,CTGGCACTTGACCCAACTCTGCCACGTGGGTCGTTTGTCTTGATTCGCTTGACGCTGCTG,8.08
9,TCCGGCTACCAGCTTCACCCACTTCAGGCCTTGTAGGTCTTGATTCGCTTGACGCTGCTG,8.4
10,CACAATTTTTACAGTAATCTAGCACGCGTAACTCCTGTCTTGATTCGCTTGACGCTGCTG,8.18
11,CTGGGACTTGACCCAACTCTGCCACATGGGTCGTTTGTCTTGATTCGCTTGACGCTGCTG,8.32
12,GATTAATTTCTGTCCTTATTCGCACGTGCCATAACAGTCTTGATTCGCTTGACGCTGCTG,8.22
13,CACAATTTTTACAGTAATGTAGCACGCGCAACTCCTGTCTTGATTCGCTTGACGCTGCTG,7.97
14,TAAAGGGAAGACGGTTGTGGTAGTTCCGCGTATTAAGTCTTGATTCGCTTGACGCTGCTG,8.3
15,CACAATTTTTACAGTAATGTAGCACGCGTACCTCCTGTCTTGATTCGCTTGACGCTGCTG,8.29
16,GGAAAAAGGCCCAGGGTAACACCGGAGGTGGGCTTAGTCTTGATTCGCTTGACGCTGCTG,8.25
17,CGGAAGTGTCGTAAACGTAGGATATCCGGTTCTTCTGTCTTGATTCGCTTGACGCTGCTG,11.7
18,CAGCATAGGACTTCTTCCCTGAAACAATTGATAACCGTCTTGATTCGCTTGACGCTGCTG,8.28
19,TTGTATAGGATCCCATCCAACACACGTGTTAAAATGGTCTTGATTCGCTTGACGCTGCTG,8.32
20,GGAAAAAGGCCCGGGGTAACACCGGAAGTGGGCTTAGTCTTGATTCGCTTGACGCTGCTG,12.5
